This note sets out measurements from ChEMBL document CHEMBL1201862, “PubChem BioAssay data set” (2004).

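A five-concentration, 48-hour dose response in 96-well plates underlies each endpoint, interpolated linearly between surrounding concentrations. At the GI50, growth is halved.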 Activity calls are given as the source filed them. Cut-off read from the data, not from the text of the source: active = GI50 up to about 1.1 µM and inactive = higher. Bounds are passed on as bounds.

In this assay the test system is NCI-H322M. The experiment in a line: inhibition of tumour cell growth, NCI panel, 48 h.
For the compound `Nc1nc2c(c(=O)[nH]1)N=C(COP(=O)(O)OP(=O)(O)O)CN2`, the GI50 is inactive: > 100 µM.
Turning to `O=C(c1cccs1)N1CCc2ccccc2C1`, the GI50 was inactive: > 100 µM.
On to `Cn1ncc2c(NCc3ccccc3)ncnc21`, for which the GI50 was inactive: > 100 µM.
For `Cc1nc(N)nc(S)c1CCC(=O)O` the value was inactive: > 100 µM.
`CC(=O)OC1CCC2(C)C(CCC3C2CC(=O)C2(C)C3CC(N3CC3)C2C(C)=O)C1` (centres undefined): the GI50 is inactive: 20.4 µM.
On to `Nc1nc(-c2cc(-c3cccc4ccccc34)nc(N)n2)cc(-c2cccc3ccccc23)n1`, for which the GI50 is inactive: > 100 µM.
Turning to `CCN(CC)c1ccc(C(=C2C=CC(=[N+](CC)CC)C=C2)c2ccccc2)cc1`, the GI50 is active: 0.0615 µM.
For `O=[N+]([O-])/C=C/c1cc2ccc3ccccc3c2[nH]1`, the GI50 is inactive: 2.88 µM.
For `Cc1c2n(c3ccccc13)CC1C2N(C)OC1(C)C` (centres undefined) the value was inactive: > 100 µM.
Take `COC(=O)Nc1nc2cc(NS(=O)(=O)c3cccs3)ccc2[nH]1`: the GI50 is inactive: 37.3 µM.
`CN1CCOC(C(NC(=O)c2ccccc2)c2ccccc2)C1=O` (centres undefined): the GI50 is inactive: > 100 µM.
For the compound `O=C(N/C(=C\c1ccc(/C=C(\NC(=O)c2ccccc2)c2nc3ccccc3s2)cc1)c1nc2ccccc2s1)c1ccccc1`, the GI50 was inactive: 12.8 µM.
For `FC(F)(F)C1(Cl)C(c2ccccc2)=C1c1ccccc1` the value was inactive: 17.9 µM.
The result for `O=C(N/N=C\c1ccc([N+](=O)[O-])cc1)c1ccccc1Nc1ccccc1C(=O)N/N=C/c1ccc([N+](=O)[O-])cc1` reads inactive: > 100 µM; that for `C[Si](C)(C)C1=C2C(=O)c3ccccc3C(=O)C2=C([Si](C)(C)C)[C@@H]2CCCC[C@H]12`, inactive: > 100 µM; that for `COc1ccc(CNC2=C(NC(C)=O)C(=O)c3ccccc3C2=O)cc1`, inactive: > 50 µM.
For `Clc1ccc(Nc2ncco2)cc1Cl`, the GI50 is inactive: > 10 µM.
For the compound `Cc1c2ccncc2c(C)c2c1[nH]c1ccc(OCCN(C)C)cc12`, the GI50 is active: 0.0891 µM.
As for `Cc1ccc(NC(=O)C(=O)C(C(=O)c2ccc3ccccc3c2)C2OC(=O)c3ccccc32)c(C)c1` (centres undefined), the GI50 is inactive: 7.85 µM.
For the compound `Cc1nc2c(nc1C)C(=O)c1cc(O)ccc1C2=O`, the GI50 was inactive: 77.4 µM.
The result for `Cc1nnc(Sc2nc(C#N)c(C#N)nc2Sc2nnc(C)s2)s1` reads inactive: 19 µM.
For the compound `CC(C)COC(=O)OC(=O)c1ccc(N(C)Cc2cnc3nc(N)nc(N)c3n2)cc1`, the GI50 was inactive: 51.9 µM.
As to `O=C(Nc1ccc(Cl)cc1Cl)C(=O)C(C(=O)c1ccc2ccccc2c1)C1OC(=O)c2ccccc21` (centres undefined), the GI50 was inactive: 7.08 µM.
For the compound `O=C1CCCC2=C1CC1=C(CCCC1=O)N2c1ccc([N+](=O)[O-])cc1`, the GI50 was inactive: > 100 µM.
With `CNS(=O)(=O)NN(C)S(=O)(=O)c1ccccc1`, the GI50 is inactive: > 100 µM.
For the compound `Cc1ccc(C(=O)O/N=C2/CCC/C2=C\c2ccccc2)cc1`, the GI50 is inactive: > 100 µM.
`CSc1ncnc2c1ncn2CCC(=O)OC(C)(C)C`: the GI50 is inactive: > 100 µM.
Turning to `COc1cc2c(cc1OC)C(C1CC1)ON(C)CC2` (centres undefined), the GI50 is inactive: > 100 µM.
On to `COc1ccc(/C(Cl)=C(\C=O)c2ccc(Cl)c(Cl)c2)cc1`, for which the GI50 is inactive: 14 µM.
For `CCNC(=S)NNC(=O)C12CC3CC(CC(C3)C1)C2` the value was inactive: > 100 µM.
Turning to `O=c1[nH]c(=O)n([C@@H]2C[C@H](CO)[C@H](O)C2)cc1/C=C/Br`, the GI50 is inactive: > 100 µM.
For `O=[N+]([O-])c1cc2[nH]nnc2c2nonc12` the value was inactive: 37.6 µM; for `Cn1c(=O)c2c(nc(-n3nc(-c4ccc(Cl)cc4)cc3N)n2C)n(C)c1=O`, inactive: 32.2 µM.
With `N=C(CC(=O)Nc1ccc(Cl)cc1)Nc1ccccc1`, the GI50 was inactive: > 100 µM.
For `C=C1C[C@H](O)[C@H](Br)C(C)(C)C12CCC(C)(Cl)C(Br)C2` (some centres undefined) the value was inactive: 1.28 µM; for `O=C(Nc1ccc(Cl)cc1)c1cc(S(=O)(=O)Nc2nc3cccnc3[nH]2)c(SSc2cc(Cl)c(C(=O)Nc3ccc(Cl)cc3)cc2S(=O)(=O)Nc2nc3cccnc3[nH]2)cc1Cl`, inactive: > 100 µM; for `COC(=O)c1c(O)ccc2c1c1c(n2Cc2ccccn2)C(=O)c2ccccc2C1`, inactive: > 100 µM.
For `COc1cc2ccnc([C@@H](OC(=O)c3ccccc3)c3ccc(OC)c(OC)c3OC)c2cc1OC` the value was inactive: 73.6 µM; for `CC(=O)NNc1nc(C)c(C(/C=C/c2ccc3c(c2)OCO3)=N/Nc2ccccc2)s1`, inactive: > 100 µM; for `NC(=S)N/N=C(\CCC(=O)Nc1ccccc1[N+](=O)[O-])CC(=O)c1ccco1`, inactive: > 100 µM.
The result for `c1ccncc1` reads inactive: > 100 µM; that for `CC1(C)C=C(/C=N/Nc2ccc(Br)cc2)C(C#N)=C(O)C1(C#N)C#N`, inactive: 58.2 µM.
In the case of `CCOC(=O)/C(O)=C(/c1n[nH]c(=O)c2ccccc12)[N+](=O)[O-]`, the GI50 was inactive: > 100 µM.
For `CCN(CC)c1ccc(/N=N/c2ccc(-c3nc4ccc[n+](C)c4o3)cc2)cc1` the value was inactive: 16 µM; for `CN1CCN(CCCCN2c3ccccc3Sc3ccc(N=[N+]=[N-])cc32)CC1`, inactive: 5.53 µM.
In the case of `O=C(O)C(Cc1ccc2c(c1)CCC2)(Cc1ccc2c(c1)CCC2)C(=O)O`, the GI50 was inactive: > 100 µM.
The result for `COC(=O)C1=C(c2ccc(OC)c(OC)c2)OC(c2ccc(OC)c(OC)c2)C1` (centres undefined) reads inactive: 57.8 µM; that for `COc1ccc(S(=O)(=O)N/N=C\c2cc([N+](=O)[O-])cc(I)c2O)c(OC)c1OC`, inactive: 31.7 µM; that for `Cc1cs/c(=N/c2ccccc2)n1CCC(O)(P(=O)(O)O)P(=O)(O)O`, inactive: > 100 µM.
`Cc1ccc(S(=O)(=O)NC2(C=O)CCC(C(C)(C)C)CC2)cc1` (centres undefined): the GI50 is inactive: 54.3 µM.
In the case of `Nc1nc(N)c2c3c(cnc2n1)CC(c1ccccc1)CC3` (centres undefined), the GI50 was inactive: 18.5 µM.
In the case of `Cc1ccc2oc(=O)c(C(=O)Nc3nc(C45CC6CC(CC(C6)C4)C5)cs3)cc2c1`, the GI50 is inactive: > 100 µM.
As to `Cc1ccc(NC(Nc2ccc(C)cc2C)=C(/C=C(\Cl)[N+](=O)[O-])[N+](=O)[O-])c(C)c1`, the GI50 is inactive: 15.7 µM.
Consider `CC(=O)NC(CSC1=C2NC(=O)\C=C/C=C\C=C/C(C)C(O)CC(=O)/C(C)=C\CC(O)/C=C\C(C)C(O)C(C)C=C(C)C(=O)c3c(O)c(C)cc(c3C1=O)C2=O)C(=O)O` (centres undefined), for which the GI50 was inactive: > 100 µM.
For `N#Cc1nnn(C2CCCCC2)c1O`, the GI50 was inactive: > 100 µM.
In the case of `Cn1c(=O)c(-c2ccccc2)c(N=[N+]=[N-])c2ccccc21`, the GI50 is inactive: > 100 µM.
Take `O=c1ccn([C@H]2CSC[C@@H](CO)C2)c(=O)[nH]1`: the GI50 was inactive: > 100 µM.
For `CSc1c(C(=O)Nc2ccc(Cl)cc2)c(N)n(N)c(=O)c1C#N` the value was inactive: 25.1 µM; for `CCCCC(C(=O)N/N=C/c1ccc([N+](=O)[O-])o1)C(=O)N/N=C/c1ccc([N+](=O)[O-])o1`, inactive: 14.9 µM; for `CC(CN(C)C)C(C#N)(c1ccccc1)c1ccccc1` (centres undefined), inactive: > 100 µM.
As for `O=C(O)CCC(NC(=O)c1ccc(Nc2nc3ccc(C(F)(F)F)cc3nc2C(=O)O)cc1)C(=O)O` (centres undefined), the GI50 is inactive: 48.3 µM.
For `Cc1sccc1C(=S)Nc1ccc(Cl)c(/C=N/OC(C)(C)C)c1` the value was inactive: 33.8 µM.
The result for `O=C(O)CC(NC(=O)C(F)(F)F)C(=O)NC1Cc2ccccc2OC1=O` (centres undefined) reads inactive: > 100 µM; that for `O=C(O)c1cc2ccccc2c(/N=N/c2c([N+](=O)[O-])cc([N+](=O)[O-])cc2S(=O)(=O)O)c1O`, inactive: > 100 µM; that for `O=C1C(Cl)C2(CC(/C=C/c3ccccc3)=NN2c2cccc(S(=O)(=O)O)c2)N1c1nc2ccccc2s1` (centres undefined), inactive: 47.6 µM.
The result for `Cc1ccc([N+](=O)[O-])c2c(NCCNC(=O)Cn3ccnc3[N+](=O)[O-])ccnc12` reads inactive: 42 µM; that for `CCOC1OC(COC(=O)C(C)(C)C)C(O)CC1n1cc(C)c(=O)[nH]c1=O` (centres undefined), inactive: > 100 µM; that for `COC(=O)C1=C(O)C(C(=O)OC)[C@]2(O)[C@H](C(=O)OC)[C@H]1C[C@@H](c1ccc(OC)c(OC)c1)[C@H]2C(=O)OC` (some centres undefined), inactive: 57.3 µM.
Turning to `O=C1C2=C(C(=O)c3c(O)ccc(O)c31)[C@@H](O)[C@@H](O)[C@@H](O)C2`, the GI50 is inactive: 3.73 µM.
Turning to `Cc1cccc2c(=O)c3cccc([C@@H](C)C(=O)O)c3oc12`, the GI50 was inactive: > 100 µM.
For the compound `CC(=N)OC1CC2CCC1(C)C2(C)C` (centres undefined), the GI50 was inactive: > 100 µM.
For the compound `COc1cc(Br)c(CC2C3=C(CCN2C(=O)C2CCC2)CC2(CC3)OCCO2)cc1O` (centres undefined), the GI50 was inactive: 93.3 µM.
For `C=C1C(=O)C23C(O)C1CC[C@H]2C12CCCC(C)(COC(C)=O)[C@H]1[C@H](O)[C@]3(O)OC2` (some centres undefined) the value was inactive: 4.02 µM; for `CC(=O)C1C(=O)C(=O)N(c2cccc([N+](=O)[O-])c2)C1=O` (centres undefined), inactive: > 100 µM.
As for `COc1ccc(/N=C2\C(=O)C3=C(OC(C)(C)CC3)c3ccccc32)cc1`, the GI50 is inactive: 1.88 µM.
For the compound `COc1cc2c(c(OC)c1OC)-c1ccc(SC)c(=O)cc1[C@@H](NC(=O)c1ccc(Cl)cc1)CC2`, the GI50 is active: < 0.01 µM.
The result for `CCCCc1ccc(Nc2ncc3ncn(COCCO)c3n2)cc1` reads inactive: 52.4 µM; that for `CC(=O)O[C@H]1C(=O)[C@@]2(C)[C@H]([C@H](OC(=O)c3ccccc3)[C@]3(O)C[C@H](OC(=O)[C@H](O)[C@@H](NC(=O)c4ccoc4)c4ccccc4)C(C)=C1C3(C)C)[C@]1(OC(C)=O)CO[C@@H]1C[C@@H]2O`, active: 0.01 µM.
For the compound `O=C(NC1=C(Cl)C(=O)c2ccccc2C1=O)C(=O)c1c(O)c2ccccc2oc1=O`, the GI50 is inactive: 6.55 µM.
